# Assay results as given in PubChem BioAssay (NCATS).
# The inconclusive results got no clear call from the source; some entries with a clear call stand among them for comparison. For part of these data: Potencies of inconclusive entries are left out as doubtful fits. Active and inactive are the calls of the source. Unless noted, calls come from the whole dose curve; as a rule, active = well fitted curve in the direction sought with a large enough effect; inconclusive = small, poorly fitted or top-dose-only effect, or another doubt; inactive = no such curve, though single readings can be large; an effect the other way counts as inactive or inconclusive.
# Columns and labels:
# [1] = qHTS Screen of the MIPE 4.0 Collection Against Ewings Sarcoma (TC71) (AID 1259253); note: nearly all actives have a fitted effect of over 40% in size; note: potency is the fitted concentration of half-maximal effect
# In short: (§1)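 CellTiter-Glo luminescence after 48 h compound exposure (titration) gave viability; percent activity used DMSO-treated cells as no inhibition and medium-only wells as full inhibition. Cells grown in RPMI/5% FBS, dosed 4 h post-seeding.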
# [2] = qHTS Screen of the MIPE 4.0 Collection Against Ewings Sarcoma (TC32) (AID 1259256); settings: TC32 Ewing sarcoma viability, CellTiter-Glo, 48 h; series mostly up to 45.8 µM; note: nearly all actives have a fitted effect of over 45% in size; note: potency is the fitted concentration of half-maximal effect
# In short: as §1
# [3] = NS1 protein of Zika virus - qHTS assay to identify small molecule inhibitors in human HEK 293 cells (AID 1347053); note: potency is the fitted concentration of half-maximal effect; nearly all actives have a fitted effect of over 55% in size
# In short: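 HEK 293 cells pretreated with compound for 1 h, then infected with ZIKV MR766 (MOI 0.5) for 24 h at 37 C. NS1 detected by TR-FRET with two anti-NS1 antibodies; normalized to uninfected (0%) and infected (100%) wells.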
# [4] = P-glycoprotein substrates identified in KB-8-5-11 adenocarcinoma cell line, qHTS therapeutic library screen (AID 1346987); note: nearly all actives have a fitted effect of over 65% in size; note: potency is the fitted concentration of half-maximal effect
# In short: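 Steps: plate 500 KB-8-5-11 cells/well in DMEM + 10% FCS (colchicine removed); pin compounds in dose-response; incubate 72 h, 37 degree C, 5% CO2; add CellTiter-Glo, 5 min; read luminescence.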
# [5] = qHTS Screen of the MIPE 4.0 Collection Against Ewings Sarcoma (EW8) (AID 1259255); note: nearly all actives have a fitted effect of over 35% in size
# In short: as §1
# [6] = Identifying Small Molecule Inhibitors of Pancreatic Cancer Stem Cells (SN12C, Spheroid) (AID 1259360); settings: Potency: SN12C spheroid viability; note: potency is the fitted concentration of half-maximal effect
# In short: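 Spheroids grown 14 days in stem cell media on nonadherent hydrogel before screening; cells attached 4 h, then compound exposure 48 h at 37C, 5% CO2. CellTiter-Glo luminescence normalized to DMSO (no inhibition) and no-cell wells (full inhibition).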
# [7] = Identifying Small Molecule Inhibitors of Pancreatic Cancer Stem Cells (A278, Adherent) (AID 1259361); settings: viability (% of control): at 46.1 µM (top of the series); note: nearly all actives have a fitted effect of over 35% in size
# In short: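 Cytotoxicity read by CellTiter-Glo luminescence after 48 h compound exposure at 37C; percent activity scaled between DMSO-treated cells and cell-free wells. Spheroid formats used cells pre-formed 14 days in stem cell media on hydrogel.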
# [8] = Identifying Small Molecule Inhibitors of Pancreatic Cancer Stem Cells (Panc1, Adherent) (AID 1259362); settings: Potency: viability; series mostly up to 46.1 µM; note: potency is the fitted concentration of half-maximal effect
# In short: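 After a 4 h attachment period, compounds were pinned into wells and cultures held 48 h under standard incubator conditions. Viability was then measured as CellTiter-Glo luminescence following 10 min at room temperature.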
# [9] = target: Tyrosine-protein phosphatase non-receptor type substrate 1 (Homo sapiens) + Leukocyte surface antigen CD47 (Homo sapiens) (UniProt P78324+Q08722); assay: CD47-SIRPalpha protein protein interaction - LANCE assay qHTS validation (AID 1347057; active = well fitted curve in the direction sought with a large enough effect in the signal ratio, with a control signal flat, not every such curve was filed as active; inconclusive = small, poorly fitted or top-dose-only effect, or effect the other way, or a change in a side signal; inactive = no such curve, though single readings can be large or run the other way; the % refers to the signal ratio)
# In short: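 First, His-tagged CD47 and Eu-labelled anti-His antibody met the compound for 30 min; next, site-specifically biotinylated SIRPalpha was added for 30 min; finally streptavidin-APC was added before reading the TR-FRET ratio.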
# Tags give direction and shape of the fitted curve.
# Chain of UniProt P78324 (P78324 whole entry, looked up): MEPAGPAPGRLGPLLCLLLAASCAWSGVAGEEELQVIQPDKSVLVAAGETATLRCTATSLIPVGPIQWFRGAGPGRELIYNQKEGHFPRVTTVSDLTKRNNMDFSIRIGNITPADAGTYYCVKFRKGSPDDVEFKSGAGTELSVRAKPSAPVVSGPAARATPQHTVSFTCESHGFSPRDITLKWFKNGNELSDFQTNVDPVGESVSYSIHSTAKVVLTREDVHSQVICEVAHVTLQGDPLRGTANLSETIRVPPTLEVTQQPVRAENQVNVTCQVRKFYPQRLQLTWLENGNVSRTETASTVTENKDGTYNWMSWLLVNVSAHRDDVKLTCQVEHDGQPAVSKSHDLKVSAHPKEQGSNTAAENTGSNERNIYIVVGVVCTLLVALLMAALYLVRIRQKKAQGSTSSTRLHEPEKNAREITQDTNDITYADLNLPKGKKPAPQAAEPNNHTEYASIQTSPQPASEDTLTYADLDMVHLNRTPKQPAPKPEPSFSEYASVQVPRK
# Chain of UniProt P78324 (Q08722 whole entry, looked up): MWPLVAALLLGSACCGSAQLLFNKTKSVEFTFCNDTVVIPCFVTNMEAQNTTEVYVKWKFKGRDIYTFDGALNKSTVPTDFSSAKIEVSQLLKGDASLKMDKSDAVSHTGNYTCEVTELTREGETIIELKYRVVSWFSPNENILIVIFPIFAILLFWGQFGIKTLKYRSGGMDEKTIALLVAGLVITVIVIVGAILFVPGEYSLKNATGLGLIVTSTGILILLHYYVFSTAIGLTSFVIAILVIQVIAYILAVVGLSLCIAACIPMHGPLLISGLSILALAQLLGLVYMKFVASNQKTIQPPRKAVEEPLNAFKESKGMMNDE
smiles,measurement,setting,value
CC(=O)O[C@@]12CO[C@H]1C[C@H](O)[C@@]1(C)C(=O)[C@H](O)C3=C(C)[C@@H](O)C[C@@](O)([C@@H](OC(=O)c4ccccc4)[C@@H]21)C3(C)C,Potency,[1],active: 23500 nM
same,Potency,[2],"inconclusive [inhibitor, full curve, poor fit]"
same,Potency,[3],"inconclusive [inhibitor, full curve]"
CN(C)CCc1ccc(O)cc1,Potency,[1],"inconclusive [inhibitor, partial curve, poor fit]"
same,Potency,[4],inactive
COC(=O)[C@@H](N)CCCN=C(N)N[N+](=O)[O-],Potency,[5],inactive
same,Potency,[2],inactive
same,Potency,[4],inactive
Cc1nc(-c2ccc(-c3ccc(C(=O)N4CCc5cc6c(cc54)C4(CCN(C)CC4)CO6)cc3)c(C)c2)no1,Potency,[1],inactive
same,Potency,[6],"inconclusive [cytotoxic, single point]"
same,IC50 (viability decrease),[7],"inconclusive [cytotoxic, partial curve]"
same,Potency,[8],active: 16600 nM
CNCC(O)c1ccc(O)cc1 (stereo not drawn),Potency,[1],inactive
same,Potency,[9],inactive
O=C(Nc1ccncc1)C(=O)c1cn(Cc2ccc(Cl)cc2)c2ccccc12,Potency,[1],active: 132 nM
same,Potency,[4],active: 33.2 nM
CC=C(C)C(=O)N[C@@H](c1ccccc1)[C@@H](O)C(=O)O[C@H]1C[C@@]2(O)[C@@H](OC(=O)c3ccccc3)[C@@H]3[C@]4(OC(C)=O)CO[C@@H]4C[C@H](O)[C@@]3(C)C(=O)[C@H](OC(C)=O)C(=C1C)C2(C)C,Potency,[1],"inconclusive [inhibitor, full curve]"
same,Potency,[3],active: 3.3 nM
